# Data taken from patent US20250304706A1 (Astellas, published 2025).
# Biological target: T1, CD3εδ complex protein (human; alpaca, UniProt P07766 23-126; P04234 22-105)
# T1 construct: they are not part of the secreted protein; also called human CD3; CD386 complex protein
# Test: ELISA, CD3 complex immobilized
# Procedure: Binding activities of the anti-TSPAN8/anti-CD3 bispecific antibodies BTE-0001 to BTE-0067 to CD3 were evaluated by the ELISA. ELISA was performed according to a conventional method. The […] complex protein obtained in Example 1-3 was immobilized on a plate. BTE-0001 to BTE-0067 were used as the test antibodies. As a secondary antibody, Goat anti-Human IgG Fc, Multi-Species SP ads-HRP (2014-05, available from SouthernBiotech) was used. TMB+Substrate-Chromogen (S1599, available from Dako) was used as the detection reagent. Infinite M200pro (available from Tecan) was used to measure the absorbance. The EC50 values were calculated using variable slope model (four parameters) in GraphPad Prism with the maximum value in the same plate fixed at the top and the minimum value in the blank in the same plate fixed at the bottom. Since BTE-0001 was always measured in each plate as a control, only the EC50 value of BTE-0001 was expressed as the average value of a plurality of plates.
# Chain of UniProt P07766 (P07766 23-126 limits assumed, stated change not applied, form in doubt, chain 1 of 2): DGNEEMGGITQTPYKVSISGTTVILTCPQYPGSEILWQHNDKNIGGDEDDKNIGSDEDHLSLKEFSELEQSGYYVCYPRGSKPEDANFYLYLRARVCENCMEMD
# Chain of UniProt P07766 (P04234 22-105 limits assumed, stated change not applied, form in doubt, chain 2 of 2, further chain): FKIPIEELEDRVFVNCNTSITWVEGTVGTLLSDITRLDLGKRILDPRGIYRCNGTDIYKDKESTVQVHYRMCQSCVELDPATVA
row,Binder,EC50 [µg/mL]
1,BTE-0026 (bispecific antibody) chain 1: QVQLVESGGGVVQPGGSLRLSCAASGFTFSSYGMHWVRQAPGKGLEWVAVIWYDGRNKYYADSVKGRFTISRDNSKNTLYLQMNSLRAEDTAVYYCTRDHSGSGSYYIDYWGQGTLVTVSSASTKGPSVFPLAPSSKSTSGGTAALGCLVKDYFPEPVTVSWNSGALTSGVHTFPAVLQSSGLYSLSSVVTVPSSSLGTQTYICNVNHKPSNTKVDKKVEPKSCDKTHTCPPCPAPEAAGGPSVFLFPPKPKDTLMISRTPEVTCVVVDVSHEDPEVKFNWYVDGVEVHNAKTKPREEQYGSTYRVVSVLTVLHQDWLNGKEYKCKVSNKALPAPIEKTISKAKGQPREPQVYTLPPSRDELTKNQVSLSCAVKGFYPSDIAVEWESNGQPENNYKTTPPVLDSDGSFFLVSKLTVDKSRWQQGNVFSCSVMHEALHNHYTQKSLSLSPGK chain 2: EIAMTQSPATLSVSPGERATLSCRASQSVSSNLAWYQQKPGQAPRLLIYGASTRATGLPARFSGSGSGTEFTLTISSLQSEDFAVYYCQQYNNFWTFGQGTKVEIKRTVAAPSVFIFPPSDEQLKSGTASVVCLLNNFYPREAKVQWKVDNALQSGNSQESVTEQDSKDSTYSLSSTLTLSKADYEKHKVYACEVTHQGLSSPVTKSFNRGEC chain 3: EVQLVESGGGLIQPGGSLRLSCAASGFTFNTYAMNWVRQAPGKGLEWVARIRSKYNNYATTYADSVKDRFTISRDDSKSTLYLQMNNLRAEDTAVYYCVRHGNFGNSYVSWFAYWGQGTLVTVSSGKPGSGKPGSGKPGSGKPGSQAVVTQEPSLTVSPGGTVTLTCRSSTGAVTTSNYANWVQQKPGQAPRGLIGGTNKRAPGTPARFSGSLLGDKAALTLSGAQPEDEAEYYCALWYSNLWVFGGGTKVTVL[human IgG1 Fc with C220S L234A L235A N297G T366W (EU numbers) cut from this listing],0.0459
2,BTE-0027 (bispecific antibody) chain 1: QVQLVESGGGVVQPGGSLRLSCAASGFTFSSYGMHWVRQAPGKGLEWVAVIWYDGRNKYYADSVKGRFTISRDNSKNTLYLQMNSLRAEDTAVYYCTRDHSGSGSYYIDYWGQGTLVTVSSASTKGPSVFPLAPSSKSTSGGTAALGCLVKDYFPEPVTVSWNSGALTSGVHTFPAVLQSSGLYSLSSVVTVPSSSLGTQTYICNVNHKPSNTKVDKKVEPKSCDKTHTCPPCPAPEAAGGPSVFLFPPKPKDTLMISRTPEVTCVVVDVSHEDPEVKFNWYVDGVEVHNAKTKPREEQYGSTYRVVSVLTVLHQDWLNGKEYKCKVSNKALPAPIEKTISKAKGQPREPQVYTLPPSRDELTKNQVSLSCAVKGFYPSDIAVEWESNGQPENNYKTTPPVLDSDGSFFLVSKLTVDKSRWQQGNVFSCSVMHEALHNHYTQKSLSLSPGK chain 2: EIAMTQSPATLSVSPGERATLSCRASQSVSSNLAWYQQKPGQAPRLLIYGASTRATGLPARFSGSGSGTEFTLTISSLQSEDFAVYYCQQYNNFWTFGQGTKVEIKRTVAAPSVFIFPPSDEQLKSGTASVVCLLNNFYPREAKVQWKVDNALQSGNSQESVTEQDSKDSTYSLSSTLTLSKADYEKHKVYACEVTHQGLSSPVTKSFNRGEC chain 3: EVQLVESGGGLIQPGGSLRLSCAASGFTFNTYAMNWVRQAPGKGLEWVARIRSKYNNYATYYADSVKDRFTISRDTSKSTLYLQMNNLRAEDTAVYYCVRHGNFGNSYVSWFAYWGQGTLVTVSSGKPGSGKPGSGKPGSGKPGSQAVVTQEPSLTVSPGGTVTLTCRSSTGAVTTSNYANWVQQKPGQAPRGLIGGTNKRAPGTPARFSGSLLGDKAALTLSGAQPEDEAEYYCALWYSNLWVFGGGTKVTVL[human IgG1 Fc with C220S L234A L235A N297G T366W (EU numbers) cut from this listing],2.95
